Each structure is given as a SMILES string. Structures can show the parent of a compound that is named as a salt. ± gives the standard deviation of the averaged measurements. The list shows a part of the results.

In the supplement of paper PMC12462457 one finds cell count data, which are given here for 37 compounds.

For this assay, the system named is OVCAR8. The experiment in a line: cell count relative to DMSO vehicle (fold change); OVCAR8 is a high-grade serous ovarian cancer line and CX-5461 an RNA polymerase I inhibitor; higher = more surviving senescent cells (less killing). Conditions: senescence inducer: CX-5461 3 µM 48 h, then 6 d recovery (CX senescent), exposure time 24 h.

Regarding `CC[C@@H](C)Nc1cc(C(=O)N[C@H]2C[C@H]3CC[C@@H](C2)N3c2ccc(C(=O)C3CC3)cn2)c(C)cc1C(N)=O`, the cell count reads like this: (compound dose 1 µM) 1.11 ± 0.25; (compound dose 5 µM) 1.27 ± 0.32.
As for `OCCN(CCO)c1nc(N2CCCCC2)c2nc(N(CCO)CCO)nc(N3CCCCC3)c2n1`, the cell count (compound dose 1 µM) was 1.1 ± 0.042 and the cell count (compound dose 5 µM) amounted to 1.08 ± 0.12.
Turning to `Cc1ccc(NC(=O)c2cccc(C(C)(C)C#N)c2)cc1Nc1ccc2ncn(C)c(=O)c2c1`, the cell count (compound dose 1 µM) stood at 1.32 ± 0.17 and the cell count (compound dose 5 µM) is 1.22 ± 0.18.
The corresponding values for `COc1cccc(Nc2nc(NCC3CCCO3)c3ccccc3n2)c1` (centres undefined) are 1.04 ± 0.23 and 1.05 ± 0.093.
The matching figures for `Clc1ccc(C(c2c[nH]c3ccccc23)c2c[nH]c3ccccc23)cc1`: 1.12 ± 0.21 and 1.026 ± 0.0064.
The compound `CC(=O)N(Cc1ccc(F)cc1)C1=C(NCc2ccccc2)C(=O)c2ccccc2C1=O` registered a cell count (compound dose 1 µM) of 1.01 ± 0.062 and a cell count (compound dose 5 µM) of 1.16 ± 0.13.
The corresponding values for `Cc1ccc(F)c(NC(=O)Nc2ccc(-c3cccc4[nH]nc(N)c34)cc2)c1` [Linifanib (ABT-869)] are 1.16 ± 0.13 and 1.08 ± 0.17.
The matching figures for `Cn1c(-c2ccccc2C(F)(F)F)nnc1C12CCC(c3noc(C4CC(F)(F)C4)n3)(CC1)CC2`: 1.22 ± 0.42 and 1.09 ± 0.16.
For `C=C1C(=O)[C@@]23[C@H](O)C[C@@H]4C(C)(C)C(=O)CC[C@@]4(C)[C@@H]2CC[C@@H]1[C@H]3O` [Glaucocalyxin A], the cell count reads like this: (compound dose 1 µM) 0.939 ± 0.13; (compound dose 5 µM) 0.0975 ± 0.056.
The corresponding values for `Cc1cc(CN2CCN(c3c(Br)cnc4nc(-c5ccc(N6CCN(C)CC6)cc5)[nH]c34)CC2)no1` are 1.09 ± 0.14 and 0.939 ± 0.014.
For the compound `N#Cc1cc2cc(CN3CCC(Nc4ncnc5sc(CC(F)(F)F)cc45)CC3)ccc2[nH]1`, the cell count by setting is: (compound dose 1 µM) 1.09 ± 0.1; (compound dose 5 µM) 1.014 ± 0.0014.
Turning to `Cc1ccc2nc(CN(CCN(Cc3nc4ccc(C)cc4[nH]3)Cc3nc4ccc(C)cc4[nH]3)Cc3nc4ccc(C)cc4[nH]3)[nH]c2c1`, the cell count is, setting by setting: (compound dose 1 µM) 1.01 ± 0.17; (compound dose 5 µM) 1.17 ± 0.067.
As to `CCc1ccc(-c2nc(CSCC(=O)NCCc3ccccc3)c(C)o2)cc1`, the cell count reads like this: (compound dose 1 µM) 1.13 ± 0.19; (compound dose 5 µM) 1.03 ± 0.16.
As for `N#CCNC(=O)c1ccc(-c2ccnc(Nc3ccc(N4CCOCC4)cc3)n2)cc1` [Momelotinib], the cell count (compound dose 1 µM) is 0.488 ± 0.14 and the cell count (compound dose 5 µM) worked out at 0.253 ± 0.087.
The corresponding values for `CS(=O)(=O)OCCCCOS(C)(=O)=O` are 1.06 ± 0.035 and 1.09 ± 0.11.
The corresponding values for `CC1(C)CCC(c2ccc(Cl)cc2)=C(CN2CCN(c3ccc(C(=O)NS(=O)(=O)c4ccc(N[C@H](CCN5CCNCC5)CSc5ccccc5)c(S(=O)(=O)C(F)(F)F)c4)cc3)CC2)C1` [Navitoclax-piperazine] are 1.11 ± 0.021 and 0.791 ± 0.099.
The matching figures for `O=C(/C=C/c1ccc(O)cc1)c1ccc(O)cc1O` [Isoliquiritigenin]: 1.09 ± 0.28 and 1.14 ± 0.16.
In the case of `Oc1c(C(Nc2ccccn2)c2cccs2)ccc2cccnc12` (centres undefined), the cell count runs as follows: (compound dose 1 µM) 1.17 ± 0.24; (compound dose 5 µM) 1.19 ± 0.19.
The corresponding values for `Oc1ccc(C(c2c[nH]c3ccccc23)c2c[nH]c3ccccc23)cc1` are 0.977 ± 0.1 and 1.17 ± 0.042.
As for `CN1CCc2c(c3ccccc3n2Cc2ccc(C(=O)NO)cc2)C1` [Tubastatin A], the cell count reads like this: (compound dose 1 µM) 1.18 ± 0.1; (compound dose 5 µM) 1.11 ± 0.06.
On to `CN1CCc2c(c3ccccc3n2Cc2ccc(C(=O)NO)cc2)C1` [Tubastatin A HCl], for which the cell count reads like this: (compound dose 1 µM) 1.14 ± 0.027; (compound dose 5 µM) 1.22 ± 0.053.
The matching figures for `Cc1c(CN2CCN(C(=O)[C@H](C)O)CC2)sc2c(N3CCOCC3)nc(-c3cnc(N)nc3)nc12` [Apitolisib]: 1.13 ± 0.029 and 1.25 ± 0.15.
The matching figures for `O=C1/C(=C/C=C/c2ccco2)SC(=S)N1NS(=O)(=O)c1ccccc1`: 1.01 ± 0.025 and 1.1 ± 0.034.
With `COc1nc(OCc2cccc(-c3ccccc3)c2C)ccc1CNCCNC(C)=O`, the cell count by setting is: (compound dose 1 µM) 1.18 ± 0.3; (compound dose 5 µM) 1.15 ± 0.054.
As for `COc1cc(O)c(C(=O)/C=C/c2ccc(O)cc2)c(OC)c1` [Flavokawain C], the cell count is, setting by setting: (compound dose 1 µM) 0.9135 ± 0.005; (compound dose 5 µM) 0.923 ± 0.093.
The matching figures for `CCn1cc(-c2ccc3c(c2)CCN3C(=O)Cc2cccc(OC(F)(F)F)c2)c2c(N)ncnc21`: 1.1 ± 0.14 and 1.07 ± 0.17.
The matching figures for `CNC(=O)c1ccccc1Nc1cc(Nc2ccc(N3CCOCC3)cc2OC)ncc1C(F)(F)F`: 1.03 ± 0.059 and 1.18 ± 0.18.
Consider `CNC(=O)c1cc(Oc2ccc(NC(=O)Nc3ccc(Cl)c(C(F)(F)F)c3)cc2)ccn1` [Sorafenib], for which the cell count (compound dose 1 µM) is 1.19 ± 0.044 and the cell count (compound dose 5 µM) is 1.15 ± 0.12.
The corresponding values for `CNC(=O)c1cc(Oc2ccc(NC(=O)Nc3ccc(Cl)c(C(F)(F)F)c3)cc2)ccn1` [Sorafenib Tosylate] are 1.18 ± 0.056 and 1.28 ± 0.15.
The corresponding values for `COc1cccc2c1C(=O)c1c(O)c3c(c(O)c1C2=O)C[C@@](O)(C(C)=O)C[C@@H]3O[C@H]1C[C@H](N)[C@H](O)[C@H](C)O1` [Daunorubicin (hydrochloride)] are 1.2 ± 0.021 and 0.812 ± 0.12.
The matching figures for `N#Cc1cc(N2CCC(C(=O)N3N=CC[C@H]3c3cc(F)cc(F)c3)CC2)ncn1`: 1.13 ± 0.054 and 1.25 ± 0.087.
For `COc1ccc(C(CC(=O)N2CCCC2)c2c(OC)cc(OC)c3c(-c4ccccc4)cc(=O)oc23)cc1` (centres undefined), the cell count worked out at 1.01 ± 0.19 (compound dose 1 µM) and 1.03 ± 0.1 (compound dose 5 µM).
The matching figures for `Cc1ccc(S(=O)(=O)Cc2nc(-c3ccc(C(=O)NCc4cccnc4)cc3)oc2C)cc1`: 1.05 ± 0.049 and 1.09 ± 0.13.
The matching figures for `Cc1cn([C@H]2C=C[C@@H](CO)O2)c(=O)[nH]c1=O` [Stavudine]: 1.1 ± 0.23 and 1.09 ± 0.24.
The corresponding values for `COc1ccc2[nH]c3c(-c4cccc5ccccc45)nccc3c2c1` are 1.15 ± 0.088 and 1.13 ± 0.083.
For the compound `O=[N+]([O-])c1ccc(Nc2ccccc2-c2ccccc2)c2nonc12`, the cell count by setting is: (compound dose 1 µM) 1.18 ± 0.044; (compound dose 5 µM) 1.12 ± 0.12.
In turn, `O=C(N[C@H]1CCc2cc(F)cc(F)c2NC1=O)c1n[nH]c(Cc2ccccc2)n1` displayed a cell count (compound dose 1 µM) of 0.993 ± 0.069 and a cell count (compound dose 5 µM) of 0.996 ± 0.03.
